The other results are listed elsewhere or left out. The energies were worked out here from pooled read counts, against the library average; single values are noisy.
The sequences below were run against T1, Pho4 (S. cerevisiae) (UniProt P07270) (assay: relative binding free energy (BET-seq); higher = weaker binding). Conditions: reference: library average.
T1 sequence: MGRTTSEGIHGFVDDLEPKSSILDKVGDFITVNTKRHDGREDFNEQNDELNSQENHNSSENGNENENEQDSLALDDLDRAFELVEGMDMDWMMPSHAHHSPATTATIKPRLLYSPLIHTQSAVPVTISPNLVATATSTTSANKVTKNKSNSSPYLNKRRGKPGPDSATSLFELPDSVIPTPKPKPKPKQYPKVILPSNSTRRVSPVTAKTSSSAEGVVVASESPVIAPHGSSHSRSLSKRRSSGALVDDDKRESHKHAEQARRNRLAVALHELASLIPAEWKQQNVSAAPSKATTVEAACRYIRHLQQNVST

**Q.** GGTTACACGTGTTAGG was tested. Which “relative binding free energy” value did it give?
**A.** 0.24 kcal/mol

**Q.** Which “relative binding free energy” value does the source give for CAGGTCACGTGTCTGG here?
**A.** 0.14 kcal/mol

**Q.** With CGGTGCACGTGTCGTG as the sequence, how does the “relative binding free energy” value read?
**A.** -0.02 kcal/mol

**Q.** For GATAGCACGTGGAATG, which “relative binding free energy” value is on record?
**A.** 0.11 kcal/mol

**Q.** TGTCGCACGTGGTTAA was tested. Which “relative binding free energy” value did it give?
**A.** -0.19 kcal/mol

**Q.** TGATTCACGTGTTTTG was tested. Which “relative binding free energy” value did it give?
**A.** 0.25 kcal/mol

**Q.** How did the “relative binding free energy” value turn out when AGGGGCACGTGTAGCT was run?
**A.** -0.12 kcal/mol

**Q.** For GAGTCCACGTGTAGTT, which “relative binding free energy” value is on record?
**A.** 0.19 kcal/mol

**Q.** How did the “relative binding free energy” value turn out when CATTGCACGTGTAAGG was run?
**A.** 0.08 kcal/mol

**Q.** How did the “relative binding free energy” value turn out when GTGTGCACGTGTTAAG was run?
**A.** 0.03 kcal/mol

**Q.** Which “relative binding free energy” value does the source give for TTTAACACGTGTAAGA here?
**A.** 0.15 kcal/mol

**Q.** Which “relative binding free energy” value does the source give for TGAGGCACGTGCAAGG here?
**A.** -0.19 kcal/mol

**Q.** AGGTTCACGTGTACAG was tested. Which “relative binding free energy” value did it give?
**A.** 0.26 kcal/mol

**Q.** With GGTATCACGTGGCAAG as the sequence, how does the “relative binding free energy” value read?
**A.** 0.1 kcal/mol

**Q.** Which “relative binding free energy” value does the source give for TGAATCACGTGTGTGA here?
**A.** 0.13 kcal/mol

**Q.** For GTTTGCACGTGGTGAA, which “relative binding free energy” value is on record?
**A.** 0.07 kcal/mol

**Q.** For ATATACACGTGAGGGT, which “relative binding free energy” value is on record?
**A.** 0.27 kcal/mol

**Q.** How did the “relative binding free energy” value turn out when GTTCTCACGTGTGCTG was run?
**A.** 0.23 kcal/mol

**Q.** How did the “relative binding free energy” value turn out when GAAGTCACGTGTTTAG was run?
**A.** 0.18 kcal/mol

**Q.** For AGCGTCACGTGGTGTT, which “relative binding free energy” value is on record?
**A.** -0.03 kcal/mol

**Q.** How did the “relative binding free energy” value turn out when TGTAGCACGTGTCGTG was run?
**A.** -0.07 kcal/mol

**Q.** How did the “relative binding free energy” value turn out when TGGGTCACGTGCGCTC was run?
**A.** 0.14 kcal/mol

**Q.** Which “relative binding free energy” value does the source give for TCAGGCACGTGTCGTT here?
**A.** 0.09 kcal/mol

**Q.** TAAATCACGTGTTTTC was tested. Which “relative binding free energy” value did it give?
**A.** 0.15 kcal/mol

**Q.** Which “relative binding free energy” value does the source give for GTTGTCACGTGTCAGA here?
**A.** 0.03 kcal/mol

**Q.** With AGATACACGTGTTTTT as the sequence, how does the “relative binding free energy” value read?
**A.** 0.13 kcal/mol

**Q.** With TCGAGCACGTGGGGGC as the sequence, how does the “relative binding free energy” value read?
**A.** -0.19 kcal/mol

**Q.** With AGATGCACGTGTGATT as the sequence, how does the “relative binding free energy” value read?
**A.** 0.07 kcal/mol

**Q.** For TATATCACGTGAATAG, which “relative binding free energy” value is on record?
**A.** 0.35 kcal/mol

**Q.** With TTTTGCACGTGAGTCT as the sequence, how does the “relative binding free energy” value read?
**A.** 0.24 kcal/mol

**Q.** For ATGTTCACGTGCGTGT, which “relative binding free energy” value is on record?
**A.** 0.14 kcal/mol

**Q.** With AGCATCACGTGGGTTA as the sequence, how does the “relative binding free energy” value read?
**A.** -0.08 kcal/mol

**Q.** TGGGCCACGTGGAGGT was tested. Which “relative binding free energy” value did it give?
**A.** -0.13 kcal/mol

**Q.** For GGTGTCACGTGCGTGC, which “relative binding free energy” value is on record?
**A.** 0.03 kcal/mol

**Q.** For AGGTGCACGTGTAGTC, which “relative binding free energy” value is on record?
**A.** 0.03 kcal/mol

**Q.** TGTTACACGTGTTGGT was tested. Which “relative binding free energy” value did it give?
**A.** 0.1 kcal/mol

**Q.** Which “relative binding free energy” value does the source give for CTGAACACGTGTGGTT here?
**A.** 0 kcal/mol

**Q.** Which “relative binding free energy” value does the source give for TTGTCCACGTGTTGCA here?
**A.** 0.04 kcal/mol

**Q.** How did the “relative binding free energy” value turn out when GGATTCACGTGCCGTG was run?
**A.** 0.21 kcal/mol

**Q.** For CTGGTCACGTGCGGAA, which “relative binding free energy” value is on record?
**A.** 0.18 kcal/mol

**Q.** TGCTGCACGTGGGGTT was tested. Which “relative binding free energy” value did it give?
**A.** -0.2 kcal/mol

**Q.** For TAGGACACGTGTATAT, which “relative binding free energy” value is on record?
**A.** -0.05 kcal/mol

**Q.** GAGAACACGTGTTGGT was tested. Which “relative binding free energy” value did it give?
**A.** 0.14 kcal/mol

**Q.** Which “relative binding free energy” value does the source give for TGGCACACGTGGGCGT here?
**A.** -0.14 kcal/mol

**Q.** TCTTGCACGTGGGTCA was tested. Which “relative binding free energy” value did it give?
**A.** -0.18 kcal/mol

**Q.** With TCGGTCACGTGTGTAC as the sequence, how does the “relative binding free energy” value read?
**A.** 0.23 kcal/mol

**Q.** With TAGTACACGTGGTAAG as the sequence, how does the “relative binding free energy” value read?
**A.** 0.03 kcal/mol

**Q.** CTTGGCACGTGACGGG was tested. Which “relative binding free energy” value did it give?
**A.** 0.06 kcal/mol

**Q.** With CGTTACACGTGGCTGT as the sequence, how does the “relative binding free energy” value read?
**A.** -0.05 kcal/mol

**Q.** For TTGGTCACGTGTGCGC, which “relative binding free energy” value is on record?
**A.** 0.17 kcal/mol

**Q.** For TAGATCACGTGTGTGT, which “relative binding free energy” value is on record?
**A.** 0.14 kcal/mol

**Q.** With GCAGGCACGTGTGTAG as the sequence, how does the “relative binding free energy” value read?
**A.** -0.1 kcal/mol

**Q.** For ATAATCACGTGGTAGT, which “relative binding free energy” value is on record?
**A.** 0 kcal/mol

**Q.** For GTGTGCACGTGGACGA, which “relative binding free energy” value is on record?
**A.** -0.17 kcal/mol

**Q.** With TATTGCACGTGTCGAG as the sequence, how does the “relative binding free energy” value read?
**A.** -0.09 kcal/mol

**Q.** For TTGTCCACGTGGGTTG, which “relative binding free energy” value is on record?
**A.** -0.08 kcal/mol

**Q.** How did the “relative binding free energy” value turn out when ACAGGCACGTGAGTTA was run?
**A.** 0.15 kcal/mol

**Q.** How did the “relative binding free energy” value turn out when ACGGACACGTGTTGGG was run?
**A.** 0.07 kcal/mol

**Q.** For TTAGTCACGTGAATCT, which “relative binding free energy” value is on record?
**A.** 0.31 kcal/mol

**Q.** For AGTGCCACGTGATAGT, which “relative binding free energy” value is on record?
**A.** -0.04 kcal/mol

**Q.** Which “relative binding free energy” value does the source give for ATGTGCACGTGGGCCG here?
**A.** -0.25 kcal/mol

**Q.** With GGTCGCACGTGGAGGC as the sequence, how does the “relative binding free energy” value read?
**A.** -0.03 kcal/mol

**Q.** CTTTGCACGTGATGCG was tested. Which “relative binding free energy” value did it give?
**A.** 0.07 kcal/mol

From the BET-seq Pho4 binding data (Le et al. 2018)
